SMILES strings stand for the structures. Records with an inconclusive call do not appear. The call rests on the fitted dose curve; in most records, active means well fitted inhibition curve with a large enough effect; inconclusive means small, poorly fitted or top-dose-only effect; inactive means flat fitted curve, though single readings scatter. A number of entries come with more than one value. This is not the full list of results. The source may hold further records. Values that stand side by side are repeated measurements in other runs, samples, wells, individuals or studies.

The assay is described as follows: Counterscreen Assay for Enhancers of SMN2 Splice Variant Expression: Modulation of SMN1 Expression. To be noted: HEK293 SMN1-luciferase reporter, luminescence, 30-36 h. An excerpt:
NIH Chemical Genomics Center [NCGC] NIH Molecular Libraries Probe Production centers Network [MLPCN] MLPCN Grant: R03 MH084179-01 Assay Submitter (PI): Elliot Androphy NCGC Assay Overview: Spinal muscular atrophy (SMA) is caused by insufficient levels of the survival motor neuron protein SMN. The SMN locus on chromosome 5q13 contains two inverted copies of SMN called SMN1 and SMN2 which are 99% identical at the amino acid level. SMN1 is a fully functional protein and SMN2 skips exon 7 90% of the time. Skipping of exon 7 produces non-functional protein product. 10% of the SMN2 protein includes exon 7 and is fully functional. In the SMA disease state, mutations in the SMN1 locus are the cause of the disease state. Because only 10% of SMN2 is of the fully functional form, it is not sufficient to overcome the deficiency produced by the loss of the SMN1 product. A therapy that either increase the amount of SMN2 product made or to increase the inclusion of exon 7 has been proposed for the treatment of SMA. We have designed an assay to identify small molecules that can increase the amount of functional SMN2 product by appending a luciferase reporter gene after the native SMN2 gene, such that inclusion of exon 7 in the expressed product places the luciferase sequence in frame, thus generating functional luciferase enzyme. […]
Background: Counterscreens check selectivity or assay interference.

Consider `COc1c(C)c2c(c(O)c1C/C=C(\C)CCC(=O)O)C(=O)OC2`, for which the Potency entry is “active: 708 nM, 398 nM, 1.26 µM, 316 nM [separate samples]”.

(Values after PubChem BioAssay AID1739 (National Center for Advancing Translational Sciences (NCATS), 2009).)
